# According to PubChem BioAssay AID624417 (National Center for Advancing Translational Sciences (NCATS), 2012):
# Among all 410,000 compounds or so, about 6,400 (1.6%) were called active. The inconclusive results got no clear call from the source; some entries with a clear call stand among them for comparison. Calls follow the shape of the dose curve; as a rule, active = well fitted inhibition curve with a large enough effect; inconclusive = small, poorly fitted or top-dose-only effect; inactive = no such curve, though single readings can be large or run the other way. No potency is given beside an inconclusive call; the fits are too rough.
# Target: Glucagon-like peptide 1 receptor (Homo sapiens) (UniProt P43220)
# Assay: qHTS of GLP-1 Receptor Inverse Agonists (Inhibition Mode); also: nearly all actives have a fitted effect of over 55% in size
# Conditions: HEK293 GLP-1R CRE-luciferase, luminescence, 24 h, GLP-1R form is constitutively active; activity change, negative = inhibition: at 38.3 µM (top of the series) unless noted
# Summary of the method: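 Seeding at 200 cells/uL, 12 h culture, 24 hr compound treatment, then luciferase reagent and a luminescence read; cells are HEK293 stably expressing a constitutively active GLP-1R plus cAMP-responsive luciferase.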
# % is scaled to controls: 0 for no effect and ±100 for the full control effect; potency is read from the fitted curve at half-maximal effect; tags tell the direction and shape of the fitted curve.
# Chain of UniProt P43220 (P43220 whole entry, looked up): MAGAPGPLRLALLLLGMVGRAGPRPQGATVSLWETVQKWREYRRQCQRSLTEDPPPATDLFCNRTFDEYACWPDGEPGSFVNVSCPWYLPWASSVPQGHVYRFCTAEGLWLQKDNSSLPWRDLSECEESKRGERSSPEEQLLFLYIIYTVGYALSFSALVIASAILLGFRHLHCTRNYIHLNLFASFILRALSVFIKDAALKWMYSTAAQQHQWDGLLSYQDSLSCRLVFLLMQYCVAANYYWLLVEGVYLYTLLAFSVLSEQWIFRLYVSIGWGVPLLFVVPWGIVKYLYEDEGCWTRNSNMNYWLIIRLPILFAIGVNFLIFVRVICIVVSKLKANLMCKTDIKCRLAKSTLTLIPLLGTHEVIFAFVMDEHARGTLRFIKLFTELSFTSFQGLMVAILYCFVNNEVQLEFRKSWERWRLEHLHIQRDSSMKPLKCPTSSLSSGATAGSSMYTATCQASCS
Structure (SMILES),Potency,"activity change, negative = inhibition"
CSCCC(C(=O)Nc1c(C)cccc1C)N1CCC(Cc2ccccc2)CC1 (stereo not drawn),"inconclusive [inhibitor, single point]",
CCN1C(=C(C#N)C#N)C=Cc2cc(C)ccc21,,inactive: 35.5%
COc1ccccc1-c1cc(-c2ccccc2)nc(SC(C(N)=O)c2ccccc2)c1C#N (stereo not drawn),"inconclusive [inhibitor, partial curve, poor fit]",
Cc1ccc(-c2nn(Cc3ccccc3)cc2C(=O)N2CCN(c3ccccn3)CC2)cc1,"inconclusive [inhibitor, single point]",
Cc1ccc(C)c(N2CCN(C(=O)Cn3cnc4onc(-c5ccc(F)cc5)c4c3=O)CC2)c1,"inconclusive [inhibitor, single point]",
COc1ccc(S(=O)(=O)N2CCOC23CCN(S(=O)(=O)c2ccc(F)cc2C)CC3)cc1,"inconclusive [inhibitor, single point]",
Cc1ccc2c(c1)N(C(=O)CCC(=O)NC1CCC(C)CC1)CCO2 (stereo not drawn),"inconclusive [inhibitor, single point]",
CCc1nc2ccc(C(=O)NCCCN(C)C)cn2c1N(C)Cc1ccc(OC)cc1,"inconclusive [inhibitor, single point]",
N#Cc1ccc(C23CC4(C2)[C@H](CN(Cc2cccnc2)[C@@H]4c2ccccc2)C3c2ccccc2)cc1 (stereo partly drawn),"inconclusive [inhibitor, partial curve]",
CCc1ccc(C(=O)NNc2cc(Cl)cc(Cl)c2)cc1,active: 1 µM,
CCOc1cc(CN2CCCC(N3CCN(c4ccc(F)cc4)CC3)C2)ccc1OC (stereo not drawn),"inconclusive [inhibitor, single point]",
CC(C1CC1)N(Cc1ccccc1)C(=S)Nc1cccc(C(F)(F)F)c1 (stereo not drawn),active: 10 µM,
O=C(N/N=C/c1ccncc1)C1CC1(c1ccccc1)c1ccccc1 (stereo not drawn),"inconclusive [inhibitor, partial curve, poor fit]",
C[C@H](CO)N1C[C@H](C)[C@@H](CN(C)C(=O)Nc2ccc(C(F)(F)F)cc2)Oc2ccc(NS(=O)(=O)c3ccc(F)cc3)cc2C1=O,"inconclusive [inhibitor, single point]",
COc1ccc(C(c2nnnn2-c2ccc3c(c2)OCCO3)N2CCN(C/C=C/c3ccccc3)CC2)cc1 (stereo not drawn),"inconclusive [inhibitor, single point]",
O=C(N/N=C/c1ccc([N+](=O)[O-])o1)c1sc2ccccc2c1Cl,"inconclusive [inhibitor, single point]",
C[C@@H](c1ccccc1)N1C[C@@H](COCc2ccccc2)Oc2cc(N3CC[C@@H](N(C)C)C3)ccc2S1(=O)=O,"inconclusive [inhibitor, partial curve, poor fit]",
O=C(NCc1ccc(Cl)cc1)c1noc2c1CCCCC2,"inconclusive [inhibitor, single point]",
CCN(CC)S(=O)(=O)c1cc([N+](=O)[O-])ccc1NNC(=O)Nc1ccc(F)cc1,"inconclusive [inhibitor, single point]",
CSc1ccc(CN(C)CC(=O)NC(=O)NCCC2=CCCCC2)cc1,"inconclusive [inhibitor, single point]",
Cc1ccc(C(=O)N/N=C\C2CC=CCC2)cc1[N+](=O)[O-] (stereo not drawn),"inconclusive [inhibitor, partial curve, poor fit]",

Structure (SMILES),Potency,"activity change, negative = inhibition"
CCCOc1ccc(C(=O)NCC(C)(C)N2CCOCC2)cc1,"inconclusive [inhibitor, single point]",
O=C(COC(=O)Cn1cnc2ccccc21)Nc1cccc([N+](=O)[O-])c1,"inconclusive [inhibitor, full curve, poor fit]",
Cc1csc(C(C#N)C(=O)c2ccc(S(=O)(=O)N3CCCC3)cc2)n1 (stereo not drawn),,inactive: -10.5%
NC(=O)C1(N2CCCCC2)CCN(C(=O)c2ccc(C#Cc3ccccc3)o2)CC1,"inconclusive [inhibitor, single point]",
Cc1cc(C)n2nc(C(=O)N/N=C/c3cccs3)nc2n1,"inconclusive [inhibitor, single point]",
c1ccc(NN(Cc2cnccn2)c2ccccc2)cc1,"inconclusive [inhibitor, single point]",
COc1ccccc1CNCC(=O)Nc1ccc(C(F)(F)F)cc1,"inconclusive [inhibitor, partial curve, poor fit]",
CCOc1ccc(N2CC(C(=O)Nc3ccc(N4CCOCC4)cc3)CC2=O)cc1 (stereo not drawn),,inactive: -2.85%
CCOc1ccc(CNC(=O)c2ccc(Sc3ccc(C)cc3)c(NC(C)=O)c2)cc1,"inconclusive [inhibitor, partial curve, poor fit]",
COc1cccc(NC(=O)c2cccc3c(=O)c4c([nH]c23)CCCC4)c1,,inactive: 15.6%
COc1ccc(-n2cnc3cc(NCc4cccs4)ccc32)cc1,"inconclusive [inhibitor, single point]",
O=C(Cn1cc(C(=O)c2cccs2)c2ccccc21)NCc1ccc2c(c1)OCO2,"inconclusive [inhibitor, partial curve, poor fit]",
COc1ccc(CCNC(=O)CN(c2cc([N+](=O)[O-])ccc2OC)S(C)(=O)=O)cc1,,inactive: 3.98%
CSc1nc2nc3c(cc2c(=O)n1-c1ccccc1C)CCCC3,"inconclusive [inhibitor, single point]",
CCCOc1ccc(C2c3c(-c4ccccc4O)n[nH]c3C(=O)N2CCc2ccccc2)cc1OCC (stereo not drawn),"inconclusive [inhibitor, single point]",
COc1ccc(OC)c(NC(=S)N2c3ccccc3CC2C)c1 (stereo not drawn),"inconclusive [inhibitor, full curve, poor fit]",
CC(=O)c1cccc(NC(=O)c2cc(-c3ccc(F)cc3)on2)c1,,inactive: 0%
Cc1noc(C)c1COc1ccc(C(=O)OCC(=O)N2CC(=O)Nc3ccccc32)cc1,"inconclusive [inhibitor, full curve, poor fit]",
O=Cc1coc2ccc3ccccc3c2c1=O,"inconclusive [inhibitor, partial curve, poor fit]",
CCOC(=O)c1sc(NC(=O)C(CC)OC(=O)C(CC(C)C)NC(=O)c2ccccc2)nc1C (stereo not drawn),"inconclusive [inhibitor, partial curve]",
CCc1cccc(C)c1NC(=O)COC(=O)c1ccc2c(c1)S(=O)(=O)c1ccccc1C2=O,,inactive: 2.29%

Structure (SMILES),Potency,"activity change, negative = inhibition"
CC[C@]12c3[nH]c4ccc(OC)cc4c3CCN1C(=O)C(CC(=O)NCCCOC)C[C@@H]2C(=O)N1CCN(C(=O)c2ccco2)CC1 (stereo partly drawn),,inactive: -9.1%
CCc1nc(N2CCN(C(=O)CCCl)CC2)c2c3c(sc2n1)CCCC3,"inconclusive [inhibitor, partial curve, poor fit]",
CCN(CC)CCN(C(=O)c1ccc(C(=O)c2ccccc2)cc1)c1nc2ccc(OC)cc2s1,"inconclusive [inhibitor, partial curve, poor fit]",
Cc1cccc(-n2c(C)cc(C(=O)C(=O)Nc3ccccc3F)c2C)c1C,"inconclusive [inhibitor, partial curve, poor fit]",
CCOc1ccc(CN2CCN(Cc3[nH]c4ccc(OC)cc4c3C)CC2CCO)cc1 (stereo not drawn),active: 12.6 µM,
Cc1ccc(S(=O)(=O)N2CCC(N3CCN(Cc4ccccc4)C(=O)C3=O)CC2)cc1C,,inactive: -8.66%
CCCc1cc(C(=O)NNC(=S)NC(C)c2ccccc2)cs1 (stereo not drawn),"inconclusive [inhibitor, full curve, poor fit]",
C=CCc1cccc(OC)c1OCCOCCNCCO,"inconclusive [inhibitor, full curve, poor fit]",
CCCCN(CCCNC(=O)c1cc(Nc2cccc(SC)c2)nc2ccccc12)Cc1ccccc1,"inconclusive [inhibitor, single point]",
O=C(c1ccc(Cn2cc(Cl)cn2)o1)N1CCN(Cc2ccc3c(c2)OCO3)CC1,"inconclusive [inhibitor, partial curve, poor fit]",
COc1ccc(Cn2c(=O)oc3ccc(C)cc32)cc1,"inconclusive [inhibitor, single point]",
O=C(NCCN1CCN(c2ccccc2)CC1)C1CCN(S(=O)(=O)N2CCOCC2)CC1,,inactive: -18.8%
CCOC(=O)c1ccccc1NC(=O)c1sc2nc3n(c(=O)c2c1C)CCCCC3,,inactive: 11.5%
Cc1nccn1CC(O)COc1ccc(Cl)cc1Cl (stereo not drawn),"inconclusive [inhibitor, partial curve, poor fit]",
CCOC(=O)c1c(NC(=O)Cc2coc3cc(C)cc(C)c23)sc2c1CCC2,,inactive: 2.48%
O=C1NC(=S)SC1=Cc1cc(Br)ccc1O,"inconclusive [inhibitor, single point]",
COc1ccc(NC(=O)Nc2nnc(-c3cccs3)s2)cc1,,inactive: 2.7%
Cc1ccc2c(c1)N(C(=O)CSc1nncn1C)C(C)(C)c1ssc(=S)c1-2,"inconclusive [inhibitor, single point]",
Cc1ccc(C)c(NS(=O)(=O)c2cc3c(cc2C)n(C)c(=O)c(=O)n3C)c1,,inactive: 9.13%
COc1ccc(CNC(=O)COC(=O)c2ccc(F)c(S(=O)(=O)N3CCOCC3)c2)cc1,,inactive: 25.2%
CCCCC(=O)Nc1nnc(S(=O)(=O)N(CC)c2ccc(OC)cc2)s1,"inconclusive [inhibitor, partial curve, poor fit]",
